# From article PMC4336329 (PLoS ONE, 2015)
# Among all 310,000 compounds or so, about 2,200 (0.71%) showed an effect of 50% or more. Effects have a minus sign here. The list shows a part of the results.
# Target: human ether-à-go-go-related gene (hERG) potassium channel (human, UniProt Q12809)
# Assay: primary screen, population patch clamp on CHO cells stably expressing hERG
# human ether-à-go-go-related gene (hERG) potassium channel, sequence (Q12809 whole entry, looked up): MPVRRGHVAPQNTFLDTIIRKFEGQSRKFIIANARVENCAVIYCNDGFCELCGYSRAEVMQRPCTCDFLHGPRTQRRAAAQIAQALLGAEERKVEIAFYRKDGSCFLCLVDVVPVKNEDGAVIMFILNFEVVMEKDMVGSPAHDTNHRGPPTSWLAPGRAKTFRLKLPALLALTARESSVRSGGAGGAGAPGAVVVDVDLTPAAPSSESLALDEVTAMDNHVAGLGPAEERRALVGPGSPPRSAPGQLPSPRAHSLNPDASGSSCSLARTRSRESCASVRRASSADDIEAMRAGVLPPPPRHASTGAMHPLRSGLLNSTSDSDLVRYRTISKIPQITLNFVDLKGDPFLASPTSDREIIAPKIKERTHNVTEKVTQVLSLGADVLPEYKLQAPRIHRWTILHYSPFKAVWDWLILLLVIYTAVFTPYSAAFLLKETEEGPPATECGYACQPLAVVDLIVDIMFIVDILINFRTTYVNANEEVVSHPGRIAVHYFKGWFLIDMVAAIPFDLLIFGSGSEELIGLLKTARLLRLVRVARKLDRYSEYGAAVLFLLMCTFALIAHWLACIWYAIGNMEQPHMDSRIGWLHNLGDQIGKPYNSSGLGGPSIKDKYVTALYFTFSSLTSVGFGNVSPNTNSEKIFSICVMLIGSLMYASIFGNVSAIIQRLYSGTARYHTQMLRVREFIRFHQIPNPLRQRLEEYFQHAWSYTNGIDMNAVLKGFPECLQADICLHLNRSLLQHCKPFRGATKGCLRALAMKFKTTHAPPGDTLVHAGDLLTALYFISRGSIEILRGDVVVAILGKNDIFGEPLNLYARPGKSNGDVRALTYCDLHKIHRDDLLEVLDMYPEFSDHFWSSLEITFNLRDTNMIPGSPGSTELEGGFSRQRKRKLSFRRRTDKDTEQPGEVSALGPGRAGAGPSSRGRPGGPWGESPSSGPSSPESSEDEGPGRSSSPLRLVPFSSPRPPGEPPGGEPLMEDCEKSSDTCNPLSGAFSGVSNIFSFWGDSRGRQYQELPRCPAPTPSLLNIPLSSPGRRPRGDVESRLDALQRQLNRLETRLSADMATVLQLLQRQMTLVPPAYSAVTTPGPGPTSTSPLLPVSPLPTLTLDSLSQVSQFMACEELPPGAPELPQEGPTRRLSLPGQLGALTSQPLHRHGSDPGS
row,SMILES,"hERG current change (%, negative = inhibition) at 1uM [%]"
1,CCN(CC)CCn1c2c(c(SCC(=O)Nc3cc(C)ccc3C)nc1=O)CCC2,-19.8
2,CC(C)CC1(C)NC(=O)N(CCN2C(=O)c3ccccc3C2=O)C1=O (stereo not shown),16.9
3,COc1ccc(C(=O)N/C=C/n2cnc3cc(C(F)(F)F)ccc32)cc1,5.92
4,CC1CC2(C)Oc3ccccc3C3OCC1(CO)C(C)C32 (stereo not shown),2.37
5,COc1ccc(S(=O)(=O)NCCOc2ccccc2)cc1F,10.1
6,Cc1cc(C(=O)COC(=O)CNC(=O)c2ccccc2)c(C)n1CC1CCCO1 (stereo not shown),13.2
7,COC(=O)C1=C(c2cc3ccccc3o2)C[C@@H]2CC[C@H]1N2C(=O)N1CCC(C)CC1,8.42
8,COc1cccc(/C=c2\s/c(=C/C(=O)c3ccc(C)cc3)[nH]c2=O)c1OC,-3.87
9,Cc1ccc(C(=O)CC(=O)c2ccc(C)cc2O)cc1,16.5
10,CCOc1ccc(CCNC(=O)COc2cccc(-n3cnnn3)c2)cc1OCC,5.06
11,COc1ccc(C2C3=C(CCCC3=O)Nc3ccc4ncccc4c32)cc1OC (stereo not shown),5.93
12,CCCc1nn(C)c(C(=O)Nc2ccc(Cl)cc2)c1Cl,5.89
13,CCOCCCNC(=O)c1ccccc1SC,-5.33
14,Cc1ccc(NC(=O)CSc2nc(=O)cc(N)n2-c2ccccc2)cc1,15.2
15,CSc1nc2c(cc1C#N)CCCCC2,10.5
16,CCCCN(CCCC)c1ncnc2nc[nH]c12,6.68
17,CN(C)CCNC=C(C(=O)Nc1ccc(Cl)cc1Cl)C(=O)Nc1ccc(Cl)cc1Cl,8.97
18,COC(=O)c1cc(C(=O)OC)n(Cc2ccc(C)cc2)c1C,5.63
19,CN(c1ccc(Cl)cc1)c1cc(=O)n(C)c2ccccc12,1.74
20,CCCNC(=O)C1CC(=O)N(c2ccc(OCC)cc2)C1 (stereo not shown),2.85
21,Cc1ccc2oc(C(=O)N(C)Cc3cnccn3)c(C)c2c1,7.3
22,FC(F)C(F)(F)c1cc(-c2ccccc2)n[nH]1,12.6
23,CCOc1cc(/C=C(\C#N)C(=O)NCc2cccnc2)ccc1O,5.63

row,SMILES,"hERG current change (%, negative = inhibition) at 1uM [%]"
1,COc1ccccc1CNC(=O)C1CCN(S(=O)(=O)c2ccc(N3CCCC3=O)cc2)CC1,11.6
2,COc1ccc(C(CNS(=O)(=O)c2ccc(F)cc2)N2CCN(C)CC2)cc1 (stereo not shown),13.1
3,O=C1CC(N2CCN(c3nc4ccccc4s3)CC2)C(=O)N1Cc1cccs1 (stereo not shown),-12.8
4,c1ccc(N2CCN(c3ccccc3)C2c2ccncc2)cc1,5.52
5,Nn1c(COc2ccccc2)nnc1SCC(=O)O,7.83
6,COc1cc(CC(=O)N2CCc3ccccc32)cc(OC)c1OC,10.7
7,CCn1c(=NC(=O)CS(=O)(=O)c2ccccc2)sc2cccc(OC)c21,1.27
8,CCOc1ccc(CCNC(=O)CSc2nnnn2C)cc1OCC,5.77
9,CCCSc1nc2c(c(=O)n1CC)SC(C)C2 (stereo not shown),9.66
10,CCOC(=O)/C(C(C)=O)=C1\OC(=O)c2ccccc21,8.9
11,CNC(=O)CN(C)S(=O)(=O)c1ccc(OC)c(Cl)c1,14.3
12,CCCC1Cc2c(sc3nc(SC)nc(N)c23)CO1 (stereo not shown),10.7
13,CCOC(=O)c1cccc(-c2ccc(C=O)o2)c1,5.37
14,CCN(CC)CCCNC(=O)C(C)n1c2ccccc2c2nc(=O)cc(C)n21 (stereo not shown),12.7
15,CCN(CC)S(=O)(=O)c1cccc(-c2cn3cccnc3n2)c1,-5.4
16,CCN(CC)S(=O)(=O)c1cc(C(=O)O)ccc1Cl,11.2
17,O=C1CCC(=O)N1c1ccc(S(=O)(=O)Nc2ccc(Br)cc2)cc1,14.7
18,CC(=O)C1=C(O)C(=O)N(c2nccs2)C1c1ccccc1 (stereo not shown),5
19,CCCOc1ccc(/C=C/c2[nH]c(=O)[nH]c(=O)c2[N+](=O)[O-])cc1OCC,6.12
20,CC(C)CNC(=O)CO/N=C/c1ccccc1Cl,-0.913
21,COc1ccc(S(=O)(=O)N2N=C(c3cccc(NS(C)(=O)=O)c3)CC2c2ccco2)cc1 (stereo not shown),16.4
22,Cc1noc(C)c1COc1cccc(C(=O)Nc2ccc(OCc3ccccc3)cc2)c1,16.4
23,COC(=O)c1c(-c2ccccc2)csc1NC1=NS(=O)(=O)c2ccccc21,12.3

row,SMILES,"hERG current change (%, negative = inhibition) at 1uM [%]"
1,O=C(N/N=C/c1ccc(O)c2ccccc12)c1cccnc1,17
2,Cc1ccc(N(CC(=O)N2CCOCC2)S(C)(=O)=O)cc1Cl,4.32
3,CC(=O)NC(Cc1cc(C)ccc1C)C(=O)N1CCN(C(=O)c2ccccc2Br)CC1 (stereo not shown),11.9
4,O=C(N/N=C/c1ccccc1OC(=O)N1CCOCC1)c1cccs1,18.9
5,O=C1CC(c2ccccc2)Cc2nc3nc(C(F)(F)F)nn3cc21 (stereo not shown),6.29
6,O=C(NCCCO)c1c(O)c2cccc3c2n(c1=O)CCC3,10.6
7,O=C(CN1CCN(Cc2ccc(F)cc2Cl)C1=O)NCCCN1CCOCC1,2.42
8,CCn1c(CNC(=O)Cc2ccc(OC)cc2)nnc1SCC(=O)Nc1nccs1,-5.49
9,C/C(=N\S(=O)(=O)c1ccc(C)cc1)Nc1cc(C(C)C)c(O)cc1C,6.13
10,CC(C)c1ccc(/C=C/C(=O)Nc2nn[nH]n2)cc1,11.1
11,N/C(=N\OC(=O)c1cc(-c2ccccc2)nc2ccccc12)c1ccncc1,8.01
12,CCOc1ccc(/C(=N\O)C(C)NO)cc1 (stereo not shown),5.47
13,O=C1CC(c2c(F)cccc2Cl)C(n2cncn2)C(O)=C1C1NCCc2ccccc21 (stereo not shown),8.64
14,Cc1ccc(S(=O)(=O)Nc2cc(C)c(O)cc2C)cc1,11.2
15,C=CCN(c1ccccc1)S(=O)(=O)c1cc2c(cc1C)N(C)CCO2,1.53
16,COc1cc(Cl)cc(C2NC(=S)NC(c3ccccc3)=C2C(C)=O)c1OCC(=O)O (stereo not shown),11
17,CCOC(=O)C1=C(C)N(C)C(=O)NC1c1c(O)ccc2ccccc12 (stereo not shown),13.3
18,C#CCOCCOCCOCCNc1nc(N2CCN(C(=O)[C@H]([C@@H](C)CC)n3cc(CCCC[NH3+])nn3)CC2)nc(N2CCN(C(=O)[C@H](CCCC[NH3+])n3cc(CCC(=O)O)nn3)CC2)n1.[Cl-],3.88
19,CC(=O)Nc1ccc(S(=O)(=O)N2CCN(c3cnn(C)c(=O)c3Cl)CC2)cc1,9.83
20,COC(=O)[C@@]1(Cc2ccc(F)cc2)[C@H]2c3cc(C(=O)N(C)C)n(Cc4ccc(OC(F)(F)F)cc4)c3C[C@H]2CN1C(=O)c1ccccc1,5.35
21,Cc1ccc(C(=O)Nc2nc(=O)n(C(=O)c3ccccc3C)s2)cc1,13.8
22,C=CCn1c(C(C)NC(=O)CC)nc2ccccc21 (stereo not shown),11.1
23,Cc1cc(C(C)(C)C)ccc1OCCN(C)C,-15.1

row,SMILES,"hERG current change (%, negative = inhibition) at 1uM [%]"
1,COc1ccc(CCC(=O)Nc2ncc(C)s2)cc1OC,9.05
2,CCOC(=O)N1CCC(NC(=O)c2oc3c(F)cccc3c2C)CC1,6.56
3,COc1ccccc1C1(O)CCN(C(=O)c2cccs2)CC1,9.98
4,CCc1nc(N=Nc2c(O)[nH]c3ccccc23)c2c3c(sc2n1)CCC3,15.5
5,Cc1cccc(C)c1NC(=O)C(Cl)=C(Cl)Cl,-0.915
6,O=C(NCCCN1CCCC1=O)c1sc2ccccc2c1Cl,8.01
7,O=[N+]([O-])/C=C/c1cn(Cc2ccc(F)cc2)c2ccccc12,15.8
8,CC(=O)C1=C(c2ccccc2)OC(N)=C(C#N)C1c1ccccc1C (stereo not shown),5.18
9,COc1ccc(NC(=O)CCS(=O)(=O)c2ccccc2Cl)cc1S(=O)(=O)Nc1ccc(Cl)cc1,10.7
10,CC(C)OC(=O)C(CC(=O)O)NCc1ccccc1 (stereo not shown),3.06
11,COc1ccc(Nc2ncnc3scc(-c4ccc(OC)cc4)c23)cc1,3.43
12,O=C1CCC2c3ccc4ccccc4c3CCN12 (stereo not shown),10.7
13,CC(C)Nc1c([N+](=O)[O-])c(=O)oc2ccccc12,14.1
14,CCOc1ccc2nc(N3CCCC(C(=O)NCCCN4CC(C)CC(C)C4)C3)sc2c1 (stereo not shown),-17.7
15,CCOC(=O)Cn1nnnc1C,9.62
16,Br.NCCCC(=O)OC1N=C(c2ccccc2Cl)c2cc(Br)ccc2NC1=O (stereo not shown),10.4
17,CCCCCCn1c(O)c(C(C)=NC)c(=O)[nH]c1=O,11
18,NCCc1ccccn1,8.25
19,Cc1cc(Cl)c(S(=O)(=O)Nc2ccc(S(=O)(=O)N3CCOCC3)cc2)cc1OCC(N)=O,14.7
20,O=C(Oc1c(Cl)cc(Cl)c2cccnc12)c1cccs1,8.02
21,COc1ccc([N+](=O)[O-])cc1CSc1ccccn1,4.48
22,CCOC(=O)CSc1ncc(-c2ccccc2)cn1,-1.79
